Test results: FireProtDB
Not every entry of the source has a single result; some have several. This is not the full list of results. The source may hold further records. Values given together repeat one measurement (runs, samples, wells, individuals or studies). Records carry a tag for their origin. A, B and so on number the origins entry by entry.

Conditions: Salmonella phage P22; pH 7.5; Thermal; CD; Tris-HCl 50 mM; KCl 250 mM; whole UniProt chain shown

B1: Transcriptional repressor arc wild type, P03050 (protein)
chain: MKGMSKMPQFNLRWPREVLDLVRKVAEENGRSVNSEIYQRVMESFKKEGRIGA
  Tm: 57.9 °C [study A] and 53.5 °C [study B]
